Source: PubChem BioAssay AID686978 (National Center for Advancing Translational Sciences (NCATS), 2013)
Screen size: about 420,000 compounds; about 64,000 (15%) were called active. Inconclusive results, whose numbers are uncertain, are shown with a selection of clear calls. The call rests on the fitted dose curve; in most records, active means well fitted inhibition curve with a large enough effect; inconclusive means small, poorly fitted or top-dose-only effect; inactive means flat fitted curve, though single readings scatter. Potencies of inconclusive entries are left out as doubtful fits.

Test: qHTS for Inhibitors of human tyrosyl-DNA phosphodiesterase 1 (TDP1): qHTS in cells in absence of CPT; further: nearly all actives have a fitted effect of over 55% in size
Conditions: DT40 Tdp1-/- hTDP1 cells, no CPT, ATP luminescence, 48 h; activity change, negative = growth inhibition: at 46.2 µM (top of the series) unless noted
How it was run: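 Compound effects on proliferation are scored in DT40 Tdp1-/-;hTDP1 cells in the absence of CPT. ATP levels (CellTiter-Glo luminescence) are recorded after a ≥48 hr, 37 °C incubation.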
On the % scale 0 is the no-effect control and ±100 the full control effect; potency means the concentration at half of the fitted maximal effect; tags describe the fitted curve by direction and shape.

Q: For `COc1cccc(CNC(=O)c2nn(C)c3c2CS(=O)(=O)c2ccccc2-3)c1`, which Potency is on record?
A: inconclusive [inhibitor, single point]

Q: With `COc1ccc2sc(N(CCCN(C)C)C(=O)c3ccc(C(=O)c4ccccc4)cc3)nc2c1` as the compound, how does the Potency read?
A: inconclusive [inhibitor, single point]

Q: For `CCn1cc(C(=O)N2CCN(c3ccc(OC)cc3)CC2)c(=O)c2cc(S(=O)(=O)N(C)C3CCCCC3)ccc21`, which Potency is on record?
A: inactive

Q: Which Potency does the source give for `O=C(NCc1cccc2ccccc12)c1cccs1` here?
A: inconclusive [inhibitor, partial curve]

Q: Which Potency does the source give for `O=S(=O)(c1ccc(C(F)(F)F)cc1)N1CCN(c2nc(-c3cccs3)nc3ccccc23)CC1` here?
A: inactive

Q: For `CCCn1c(SCC(=O)N(C)CC(=O)Nc2ccc(Cl)cc2)n[nH]c1=O`, which activity change, negative = growth inhibition is on record?
A: inconclusive: -34% [inhibitor]

Q: For `CC(C)(C)c1ccc(C(=O)N2CCN(CCNC(=O)C(=O)NCc3ccc(Cl)cc3)CC2)cc1`, which Potency is on record?
A: active: 20.6 µM

Q: With `Cc1ccc(C(=O)NCCc2ccccc2)cc1S(=O)(=O)N1CCOCC1` as the compound, how does the Potency read?
A: inactive

Q: Which Potency does the source give for `CCOC(=O)c1c(-c2ccc(C)cc2)csc1NC(=O)CCSc1nnc2ccccn12` here?
A: active: 23.1 µM

Q: For `NNC(=O)COc1cccc(Oc2ccccc2)c1`, which Potency is on record?
A: active: 18.4 µM

Q: With `CCCCC1S/C(=N/N=C/c2ccco2)NC1=O` (stereo unspecified) as the compound, how does the Potency read?
A: inconclusive [inhibitor, single point]

Q: Which Potency does the source give for `C=C1/C=C(\C)C(C)(O)CC(O)CC(=O)C(O)C(O)C(C)CC(C)OC(=O)/C(C)=C/CC/C=C/C(OC)C(O)CC(C)C1` (stereo unspecified) here?
A: inconclusive [inhibitor, single point]

Q: For `Cc1ccc(OCCNC(=O)c2cncc(Br)c2)cc1C`, which Potency is on record?
A: inconclusive [inhibitor, single point]

Q: With `Cc1ccc2c(c1)c1ncnc(N3CCN(c4ccccc4)CC3)c1n2C` as the compound, how does the Potency read?
A: inconclusive [inhibitor, partial curve]

Q: For `Cc1nc2ccc(NS(=O)(=O)c3c(F)cccc3F)cc2s1`, which Potency is on record?
A: active: 16.4 µM

Q: With `O=C(NCc1ccco1)c1ccc2c(c1)N(Cc1ccccc1F)C(=O)c1ccccc1S2=O` (stereo unspecified) as the compound, how does the Potency read?
A: inconclusive [inhibitor, single point]

Q: With `COc1ccc(NC(=O)CSC2=Nc3ccccc3C3=NC(CCC(=O)NCCc4ccccc4)C(=O)N23)c(OC)c1` (stereo unspecified) as the compound, how does the Potency read?
A: active: 8.2 µM

Q: Which Potency does the source give for `COc1ccc(NC(=O)Nc2ccc(F)cc2F)cc1` here?
A: active: 5.8 µM

Q: Which Potency does the source give for `CC(C)NC(=S)N/N=C/c1cccnc1` here?
A: inconclusive [inhibitor, single point]

Q: For `COc1ccc(N2CCN(C3CCCN(C(=O)CSC)C3)CC2)cc1` (stereo unspecified), which Potency is on record?
A: inactive

Q: With `c1ccc(-c2cc(-c3ccc(N4CCOCC4)cc3)nc3ccccc23)cc1` as the compound, how does the Potency read?
A: inactive

Q: Which Potency does the source give for `CCOc1ccc(NC(=S)Nc2cc(OC)c(Cl)cc2OC)cc1` here?
A: inconclusive [inhibitor, partial curve]

Q: With `COc1cc(OC)c(C2=NOC(C(=O)NCc3cccnc3)C2)cc1Cl` (stereo unspecified) as the compound, how does the Potency read?
A: active: 14.6 µM

Q: With `COc1ccc(CCNC(=O)CSc2ccc3nnc(CCNC(=O)c4ccc(C)cc4)n3n2)cc1OC` as the compound, how does the Potency read?
A: inactive

Q: With `Cc1sc2ncnc(N3CCC(C(=O)NNC(=O)COc4ccc(Cl)cc4)CC3)c2c1C` as the compound, how does the Potency read?
A: inconclusive [inhibitor, single point]

Q: Which activity change, negative = growth inhibition does the source give for `CC(=O)c1ccc(N2CCN(S(=O)(=O)c3cc4c(cc3C)NC(=O)CO4)CC2)cc1` here?
A: inconclusive: -30.8% [inhibitor]

Q: For `O=C(CSc1nc2c(cnn2-c2cccc(Cl)c2)c(=O)[nH]1)NCCC1=CCCCC1`, which Potency is on record?
A: inactive

Q: Which Potency does the source give for `O=C(/C=C(\O)c1ccccc1)C(=O)NNC(=O)c1ccccc1[N+](=O)[O-]` here?
A: inactive

Q: Which Potency does the source give for `Cc1nn(-c2cccc(Cl)c2)c2c1C(c1ccncc1)C(C#N)=C(N)O2` (stereo unspecified) here?
A: inconclusive [inhibitor, single point]

Q: With `COc1ccccc1CNC(=O)c1cc2ccccc2o1` as the compound, how does the Potency read?
A: inconclusive [inhibitor, partial curve, poor fit]

Q: With `COc1ccccc1CNC(=O)c1ccc2nc3[nH]c4ccccc4c3nc2c1` as the compound, how does the Potency read?
A: active: 8.2 µM

Q: Which Potency does the source give for `O=C(CN1CCN(Cc2cccc(F)c2)CC1)Nc1ccccc1F` here?
A: inconclusive [inhibitor, single point]

Q: Which Potency does the source give for `Cc1ccccc1-c1nnn(CC(=O)N2CCN(S(=O)(=O)c3ccc(Cl)cc3)CC2)n1` here?
A: inconclusive [inhibitor, single point]

Q: With `COCCN(CC(=O)Nc1ccccc1C(F)(F)F)C(=O)/C=C/c1cc(Cl)c2c(c1)OCO2` as the compound, how does the Potency read?
A: inconclusive [inhibitor, partial curve]

Q: Which Potency does the source give for `O=C(c1ccc(Cl)c(S(=O)(=O)N2CCCCCC2)c1)N1CCCCC1` here?
A: inactive

Q: For `O=C(C[n+]1cc(-c2ccc(Cl)c(Cl)c2)n2c1CCC2)c1cccs1`, which Potency is on record?
A: active: 18.4 µM

Q: With `O=C(COC(=O)c1ccc([N+](=O)[O-])o1)NCc1ccccc1` as the compound, how does the Potency read?
A: inactive

Q: For `COc1ccc(CC(=O)n2[nH]c(=O)ccc2=O)cc1OC`, which Potency is on record?
A: inconclusive [inhibitor, single point]

Q: Which Potency does the source give for `N/C(=N\OC(=O)c1cccc(Cl)c1)c1ccccn1` here?
A: inconclusive [inhibitor, single point]

Q: With `COc1ccc(CN2CCOCCOCCN(Cc3ccc(OC)cc3)CCOCCOCC2)cc1` as the compound, how does the Potency read?
A: active: 29.1 µM

Q: Which Potency does the source give for `Cc1cc(C)cc(N(C(=O)c2csnn2)C(C(=O)NC(C)(C)C)c2cccs2)c1` (stereo unspecified) here?
A: inconclusive [inhibitor, partial curve]

Q: Which Potency does the source give for `Cc1ccc(Nc2n[nH]c(=S)s2)c(C)c1` here?
A: inconclusive [inhibitor, partial curve, poor fit]

Q: Which Potency does the source give for `COC(=O)c1ccc(NC(=O)CCS(=O)(=O)c2ccc3c(c2)NC(=O)C(C)S3)cc1` (stereo unspecified) here?
A: inconclusive [inhibitor, single point]

Q: With `O=c1oc2cc(O)ccc2cc1-c1nc2ccccc2o1` as the compound, how does the Potency read?
A: inconclusive [inhibitor, single point]

Q: Which Potency does the source give for `O=C(c1cc(COc2ccc(F)cc2Cl)on1)N1CCC(c2ccncc2)CC1` here?
A: active: 6.51 µM

Q: Which Potency does the source give for `CC(=O)OCC(=O)Nc1c(C)cccc1C` here?
A: inactive
